Reference: PubChem BioAssay AID1346428 (National Center for Advancing Translational Sciences (NCATS), 2018)
The whole screen tested about 48,000 compounds, of which about 1,200 (2.5%) were called active. Another 2% or so got no clear call; they are omitted.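 The calls were made as follows: active = activation of at least 60% and not above a set upper limit (about 1 call in 100 departs from these limits); inconclusive = activation of 40% to 60%, or above that upper limit; inactive = activation under 40%.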 Some of the results follow.
Also: 0% is about no effect.

What follows are compounds tested against Probable G-protein coupled receptor 32 (Homo sapiens) (UniProt O75388) (assay: qHTS for Agonists of Human Resolvin D1 Receptor DRV1). Conditions: CHO-K1 GPR32 beta-arrestin PathHunter luminescence, 90 min; at 76.9 µM; active compounds read high; zero percent set by DMSO-only wells.
Chain of UniProt O75388 (O75388 whole entry, looked up): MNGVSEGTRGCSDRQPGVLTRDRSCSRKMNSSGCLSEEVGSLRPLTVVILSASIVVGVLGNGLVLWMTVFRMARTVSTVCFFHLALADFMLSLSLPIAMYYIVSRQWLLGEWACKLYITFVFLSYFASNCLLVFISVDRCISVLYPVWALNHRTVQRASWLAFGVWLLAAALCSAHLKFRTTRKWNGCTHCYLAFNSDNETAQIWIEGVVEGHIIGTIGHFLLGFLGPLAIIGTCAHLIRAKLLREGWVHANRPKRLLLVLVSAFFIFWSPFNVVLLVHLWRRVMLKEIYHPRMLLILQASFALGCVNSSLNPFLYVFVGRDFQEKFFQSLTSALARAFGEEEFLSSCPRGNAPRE
Procedure, shortened: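 Step 1: seed CHO-K1 GPR32 beta-arrestin cells, 2,500/well, overnight at 37 °C. Step 2: add compounds, 90 min at 37 °C. Step 3: detection reagent, 1 h ambient, then luminescence.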
In the case of CCOc1ccc(-n2c(Cc3ccccc3)nnc2SCc2nc(-c3ccccc3C)no2)cc1, the activation is reported as inactive: -27.7%.
For CCOC(=O)c1c(C)[nH]c(CCC(=O)NCCCN2CCN(c3cccc(Cl)c3)CC2)c1C, the activation was inactive: 3.48%.
In the case of CCn1c(CN2CCC(C)CC2)nc2cc(NC(=O)c3ccccc3[N+](=O)[O-])ccc21, the activation is reported as inactive: -17.3%.
Cc1ccc(C)c(Cn2c(=O)c3c(nc4n3CCN4c3ccc(F)cc3)n(C)c2=O)c1 was tested, and the activation was inactive: 4.02%.
CCc1ccc(OC(=O)CSc2nnc(-c3ccc4c(c3)OCO4)o2)cc1 was tested, and the activation was inactive: -6.11%.
In the case of Cc1ccc(NC(=O)C(=O)NCC(c2cccnc2)N2CCOCC2)cc1C (stereo not drawn), the activation is reported as inactive: 23.5%.
In the case of CCS(=O)(=O)N1CCc2cc(C(=O)N3CCN(c4cccc(C(F)(F)F)c4)CC3)ccc21, the activation is reported as active: 64.7%.
For Oc1cccc(C(Nc2ccccn2)c2ccc3cccnc3c2O)c1Cl (stereo not drawn), the activation was active: 81%.
With CCOCCCNC(=O)C(c1ccc(OC)cc1)N(Cc1cccs1)C(=O)c1ccc(NC(C)=O)cc1 (stereo not drawn) the activation was inactive: -4.55%.
In the case of N[C@@H](Cc1ccc(O)c(I)c1)C(=O)O, the activation is reported as inactive: -5.31%.
For Cc1ccc(C(=O)c2oc3ccccc3c2NC(=O)c2cc(=O)c3ccccc3o2)cc1, the activation was inactive: 3.41%.
For Fc1cccc(-c2nc(-c3ccncc3)no2)c1, the activation was inactive: -5.09%.
In the case of COc1cccc(-c2cn3c(n2)sc2cc(C(=O)NCc4cccs4)ccc23)c1, the activation is reported as inactive: -0.88%.
With COc1ccc(CNC(=O)Cn2ccc3cc(S(=O)(=O)N4CCCCCC4)ccc32)cc1OC the activation was inactive: 12.5%.
In the case of COc1ccc2oc(=O)cc(CN3CCN(C(=O)c4ccccc4F)CC3)c2c1, the activation is reported as inactive: -3.84%.
CCCc1noc(-c2ccc(N3CCCCC3)c([N+](=O)[O-])c2)n1 was tested, and the activation was inactive: -6.72%.
CN(C)S(=O)(=O)N(CC(=O)NCCSCc1ccccc1Cl)c1ccccc1 was tested, and the activation was inactive: -12.6%.
COc1cccc(-c2nc(SCC(=O)Nc3ccc4c(c3)OCO4)c(-c3ccccc3)[nH]2)c1 was tested, and the activation was inactive: -23%.
With COc1cc(NC(=O)Cn2ncc3c(=O)oc4ccccc4c32)cc(OC)c1OC the activation was inactive: 8.28%.
With CCc1ccc(S(=O)(=O)c2nnn3c2nc(NCCc2ccccc2)c2sccc23)cc1 the activation was inactive: -26%.
With Cc1nc2c(cnn2-c2ccccc2Cl)c(=O)n1-c1ccc(C(C)C)cc1 the activation was inactive: 18.7%.
With Cc1cccc(N2CCN(S(=O)(=O)c3cc(Br)cc4c3N(C(=O)C3CC3)CC4)CC2C)c1 (stereo not drawn) the activation was inactive: 7.18%.
In the case of COc1ccc(CCn2cc3c(c2-c2ccccc2Br)c(=O)n(C)c(=O)n3C)cc1OC, the activation is reported as inactive: 2.99%.
